Data as given in publication PMC10387491.
Results are given in words; binding and its absence hold for the method and conditions named. In cells and extracts the contact can be indirect. Some results given as binding are weak or reduced against the parent protein; the word gives no strength.

Sequences of proteins named here, by UniProt entry; tags and fusion partners are left off.
UniProt P19474: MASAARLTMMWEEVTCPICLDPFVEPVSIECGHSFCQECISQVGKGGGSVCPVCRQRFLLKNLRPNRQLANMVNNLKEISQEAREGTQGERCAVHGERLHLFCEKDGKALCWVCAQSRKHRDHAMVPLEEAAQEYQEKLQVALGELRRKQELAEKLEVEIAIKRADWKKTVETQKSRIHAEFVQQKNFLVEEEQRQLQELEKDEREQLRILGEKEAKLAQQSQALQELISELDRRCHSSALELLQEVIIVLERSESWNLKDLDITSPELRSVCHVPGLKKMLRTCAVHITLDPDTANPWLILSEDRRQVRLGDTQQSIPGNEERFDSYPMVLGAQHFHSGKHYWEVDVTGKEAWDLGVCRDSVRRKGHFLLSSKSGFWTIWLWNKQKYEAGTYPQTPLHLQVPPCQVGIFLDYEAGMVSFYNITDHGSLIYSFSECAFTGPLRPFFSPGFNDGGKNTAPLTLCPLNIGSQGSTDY

What was measured:
[1] = target: GFP-tag hPCL3S (human) (UniProt Q5T6S3); assay: co-IP; 293T cells transiently transfected with the indicated plasmids (Lipofectamine 2000), lysed after 48 h; cleared lysates immunoprecipitated with GFP or FLAG antibody and protein G-Sepharose beads; immunoblot
[2] = target: FLAG-tag hPCL3L (human) (UniProt Q5T6S3); assay: as above
[3] = target: hPCL3S (shorter isoform of human polycomb-like protein 3, PHD finger protein 19) (human (endogenous in A549)) (UniProt Q5T6S3); assay: co-IP; A549 cell lysate immunoprecipitated with anti-hPCL3S or anti-hPCL3L antibody (rabbit IgG as control); Western blotting of the IP product
[4] = target: hPCL3L (long isoform of human polycomb-like protein 3, PHD finger protein 19) (human (endogenous in A549)) (UniProt Q5T6S3); assay: as above

Row | binding [1] | binding [2] | binding [3] | binding [4] | Substance
1 | no binding |  |  |  | FLAG-tag hPCL3L (from UniProt Q5T6S3-1 1-580)
2 | binds | binds |  |  | TRIM21 expressed in 293T cells (from UniProt P19474 1-475)
3 |  |  | binds | binds | tripartite motif containing-21 (TRIM21) (from UniProt P19474 1-475)
